In PubChem BioAssay AID1159614 (National Center for Advancing Translational Sciences (NCATS), 2016):
The whole screen tested about 45,000 compounds, of which about 65 (0.1%) were called active. The call rests on the fitted dose curve; in most records, active means well fitted activation curve with a large enough effect; inconclusive means small, poorly fitted or top-dose-only effect; inactive means no such curve, though single readings can be large or run the other way. This is one part of the list.

These compounds were tested against Galactocerebrosidase (Homo sapiens) (UniProt P54803) (assay: A Novel Cell-Based Assay to Identify Small Molecules for B -Galactocerebrosidase). Conditions: 145M-Twi-hGALC-G270D cells (Twitcher mouse brain line with human GALC G270D), HMU-beta-Gal fluorescence, 48 h; series mostly up to 57.5 µM; activation: at the top concentration.
Procedure, shortened: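 Fluorogenic HMU-b-Gal hydrolysis (0.1 mM final, pH 5.2 citrate-phosphate with 1 mg/mL sodium taurocholate; carbonate stop buffer) measures mutant GALC activity after compound treatment of live 145M-Twi Twitcher brain cells stably carrying human GALC-G270D, with wild-type GALC line alongside; activation sought.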
Further: 0% is about no effect; nearly all actives have a fitted effect of over 65% in size.

Sequence of UniProt P54803 (P54803 whole entry, looked up): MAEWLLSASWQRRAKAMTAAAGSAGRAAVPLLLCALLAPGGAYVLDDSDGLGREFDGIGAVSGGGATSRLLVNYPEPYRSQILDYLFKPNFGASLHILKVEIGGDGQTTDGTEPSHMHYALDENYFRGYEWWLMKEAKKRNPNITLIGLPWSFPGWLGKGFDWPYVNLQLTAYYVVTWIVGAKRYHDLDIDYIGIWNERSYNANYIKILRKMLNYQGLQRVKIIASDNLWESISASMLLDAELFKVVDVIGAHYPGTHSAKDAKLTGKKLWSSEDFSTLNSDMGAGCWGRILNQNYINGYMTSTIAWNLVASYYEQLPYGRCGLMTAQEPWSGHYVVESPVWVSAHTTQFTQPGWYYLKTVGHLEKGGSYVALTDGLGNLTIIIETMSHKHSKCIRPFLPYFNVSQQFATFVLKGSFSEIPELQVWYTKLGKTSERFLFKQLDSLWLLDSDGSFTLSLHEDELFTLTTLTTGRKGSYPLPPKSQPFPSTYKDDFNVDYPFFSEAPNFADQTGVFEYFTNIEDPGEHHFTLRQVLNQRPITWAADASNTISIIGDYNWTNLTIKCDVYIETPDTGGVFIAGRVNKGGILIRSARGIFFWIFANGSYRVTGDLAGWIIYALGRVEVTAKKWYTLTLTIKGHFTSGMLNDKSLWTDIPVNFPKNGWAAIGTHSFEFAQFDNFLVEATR

activation, inactive:
COc1cccc(CNC(=O)C(C)n2c(=O)cc(-c3ccccc3)c3c(C)nn(C)c32)c1 (stereo not given) -36.9%
O=C(Cn1cc(SCc2c(F)cccc2Cl)c2ccccc21)N1CCCC1 -44%
O=C(/C=C/c1ccccc1Cl)Nc1nc(-c2cccs2)ns1 -3.08%
COc1ccc(NC(=O)N2CCN(S(=O)(=O)c3ccc4c(ccn4C)c3)CC2)c(OC)c1 6.06%
CN(Cc1ccccc1)C(=O)CSc1nc(-c2ccc(F)cc2)cc(C(F)(F)F)n1 3.08%
COCCOC(=O)c1c(-c2ccccc2)c(-c2ccccc2)nn(C)c1=O -5.96%
COc1ccc(NC(=O)C2CCCN(c3nnc(C)c4c(C)n(-c5ccccc5)nc34)C2)cc1Cl (stereo not given) -6.89%
CCc1ccccc1NC(=O)Cn1c(=O)n(Cc2ccc(OC)cc2)c(=O)c2oc3ccccc3c21 -3.67%
CCOc1ccc(CC(=O)Nc2c(C(=O)c3ccccc3)oc3ccc(OC)cc23)cc1OCC -15.1%
CCCC(CCC)C(=O)NC1CC(=O)N(c2ccc3c(c2)OCCO3)C1 (stereo not given) -8.35%
O=C(Nc1nnc(S(=O)(=O)N2CCc3ccccc32)s1)c1cccc(Cl)c1 -3.48%
Cc1ccc(/C=C(\C#N)c2nc3ccccc3c(=O)[nH]2)cc1 -13.9%
Cc1ccc(C)c(N2CCN(C(=O)c3cnn(-c4ccccc4Cl)c3C3CCN(C(=O)OC(C)(C)C)CC3)CC2)c1 -9.87%
COc1ccc(Cc2nc3ccc(C(=O)NCc4ccccc4Cl)cc3o2)cc1 -25.5%
O=C(CSc1nc(-c2ccc(F)cc2)[nH]c1-c1ccc(F)cc1)Nc1ccc2c(c1)OCCO2 -11.8%
Cc1ccc(NC(=O)C2CC(=O)N(c3ccc(OC(C)C)cc3)C2)cc1 (stereo not given) -0.941%
CCN(CC)c1ccc(NC(=O)C2CCN(S(=O)(=O)c3cnc[nH]3)CC2)c(C)c1 -10.1%
CCOC(=O)c1c(C)c(-c2ccccc2)n(CC(=O)NC(CC)Cc2ccccc2)c1C (stereo not given) -10.6%
O=C(COc1ccc(Cl)cc1)Nc1ccccc1OCc1cc(=O)n2ccccc2n1 -7.56%
CCOc1ccc(CC(=O)NCC(c2cccs2)S(=O)(=O)c2ccc(F)c(C)c2)cc1 (stereo not given) -3.31%
CCc1ccc(NC(=O)C(CC)n2c(=O)c(-c3ccccc3NC(C)=O)nc3ccccc32)cc1 (stereo not given) -4.34%
COc1ccc(S(=O)(=O)NCC(c2ccc(N(C)C)cc2)N2CCc3ccccc32)cc1OC (stereo not given) 7.29%
CCc1ccccc1N(C)C(=O)c1ccc2c(=O)n3c(nc2c1)CCCCC3 -6.34%
Cc1ccc(Nc2nnc(-c3ccc(C)c(S(N)(=O)=O)c3)c3ccccc23)cc1 -11.6%
COc1cccc(C(=O)Nc2ccc3oc(-c4cccc5c(Br)cccc45)nc3c2)c1 -4.5%
COc1ccccc1N1CCN(C(=O)c2cnn(-c3ccc(F)cc3F)c2C2CCNCC2)CC1 -26.1%
CN(C)S(=O)(=O)c1ccc(C(=O)NCCSc2c(-c3ccc(Cl)cc3)[nH]c3ccccc23)cc1 -8.86%
Cc1cccc(OCC(=O)Nc2cccc3cccnc23)c1C -13.7%
CCOC(=O)c1c(NC(=O)c2ccccc2OCC)sc2c1CCC(CC)C2 (stereo not given) -14.6%
COc1ccc(N2CCN(C(=O)CCc3c(C)nc4cc(-c5ccc(OC)cc5OC)nn4c3C)CC2)cc1 -1.62%
Cc1ccc2cccc(NC(=O)C(C)(C)Oc3ccc(Br)cc3)c2n1 -14.9%
CCOc1ccc(NC(=O)CSc2nc(-c3ccc(F)cc3)cc(C(F)(F)F)c2C#N)cc1 -23.2%
CCOc1ccc(NC(=O)CCS(=O)(=O)c2ccc3c(c2)n(C)c(=O)c(=O)n3C)cc1 -11.6%
CCN(Cc1ccccc1)C(=O)CN1C(=O)COc2ccc(S(=O)(=O)N3CCCCCC3)cc21 -4.85%
Cc1ccc(NC(=O)CCS(=O)(=O)c2cccc3nsnc23)c(C)c1 3.26%
CCn1cc2nc(SCc3ccccc3F)n(Cc3ccc(C)cc3)c(=O)c2n1 -41%
CCOC(=O)c1ccccc1NC(=O)Cn1c2ncccc2c(=O)n1-c1ccccc1 -18%
CCOCCCn1c(SCC(=O)Nc2ccc(OC)cc2OC)nc2ccccc2c1=O -11.6%
CCOC(=O)CSc1nc2ccc(NC(=O)c3ccccc3)cc2s1 5.34%
COc1cccc(C(=O)c2cn(CC(=O)Nc3cccc(C)c3C)c3nc(C)ccc3c2=O)c1 -8.58%
Cc1ccc(C)c(N2CCN(Cc3nnc(-c4ccccc4)o3)CC2)c1 -28.7%
Cc1cccc(C)c1NC(=O)Cn1nc(C)c2sc3ccccc3c2c1=O -17%
COc1ccc(-c2cn3c(n2)sc2cc(C(=O)Nc4cc(Cl)ccc4C)ccc23)cc1 -15.8%
CCc1ccc(C(=O)Nc2ccc3nn(-c4ccc(C)c(Cl)c4)nc3c2)cc1 3.74%
Cc1ccc(CN2CCc3nc(SCC(=O)Nc4cccc(C)c4C)[nH]c(=O)c3C2)cc1 -1.98%
COc1ccc2oc(-c3ccc(C)c(NC(=O)Cc4ccc(Cl)cc4)c3)nc2c1 -4.98%
CCSc1ncc(Cl)c(C(=O)Nc2c(C(=O)c3ccccc3)oc3ccccc23)n1 -32.4%
Cc1ccccc1CN1CCN(CC(=O)NCc2ccccc2Cl)C1=O -16%
O=C(NCCc1csc(-c2ccc(F)cc2)n1)c1ccc(Br)o1 -19.6%
Cc1nc2cc(-c3ccccc3)nn2c(C)c1CCC(=O)N1CCN(c2ccccc2)CC1 -13%
Cc1cccc(NC(=O)c2cc(S(=O)(=O)N3CCC4(CC3)OCCO4)ccc2F)c1 -16.5%
COc1ccc(N2CC(NC(=O)c3ccc(S(=O)(=O)N4CCCCC4)cc3)CC2=O)cc1OC (stereo not given) 6.54%
O=C(CCNS(=O)(=O)c1ccc2c(c1)CCN2C(=O)C1CC1)Nc1ccc(F)cc1F -40.1%
CCOC(=O)c1ccc(NC(=O)Cn2cc(C(=O)c3ccc(Cl)cc3)c(=O)c3ccc(C)nc32)cc1 -10.9%
COc1cc(OC)cc(-c2nc3nc(C)c(CCC(=O)Nc4cc(F)ccc4F)c(C)n3n2)c1 -4.78%
Fc1ccc2c(c1)NC(c1ccncc1)=NC(c1cccs1)=N2 -18.4%
Cc1c(NC(=O)c2cc(=O)c3cc(Cl)ccc3o2)c(=O)n(-c2ccccc2)n1C -9.65%
Cc1cccc(-c2nc(Cn3c(SCc4cccc(C(F)(F)F)c4)nc4ccncc43)c(C)o2)c1 -8.24%
Cc1nc2c(C(=O)NC(C)c3ccccc3)cnn2c(C)c1Cc1ccccc1 (stereo not given) -32.1%
COC(=O)c1cc2occc2n1Cc1nc(-c2ccc(C)cc2)oc1C -12%
CCC(=O)Nc1nnc(S(=O)(=O)N2CCc3ccccc32)s1 5.12%
Cc1cccc(-n2nnnc2S(C)(=O)=O)c1 -12.5%
CCc1ccc(-c2[nH]c3c(c2-c2sc(C)c(C(=O)OC)c2O)c(=O)n(C)c(=O)n3C)cc1 -11.6%
O=C(Cc1ccccc1)Nc1c(C(=O)Nc2ccccc2F)oc2ccccc12 -10.3%
CCn1cc(C(=O)NCc2ccccc2)c(=O)c2cc(S(=O)(=O)N3CCCCCC3)ccc21 -8.83%
COc1ccc(NC(=O)c2ccc(COc3ccccc3OC)o2)cc1OC -11.4%
Cc1ccc(OCc2nc3ccccc3n2Cc2ccccc2Cl)cc1 -19.6%
COc1cccc(CNC(=O)CCC(=O)N2Cc3cccc(OC)c3Oc3ncccc32)c1OC -12.9%
CCCNC(=O)CCc1c(C)nc2nc(-c3cc(OC)cc(OC)c3)nn2c1C -0.707%
Cc1c(NC(=O)c2ccccc2F)cccc1-c1nc2cccnc2s1 -8.98%
CC(=O)N1CCCc2cc(S(=O)(=O)N(C)CC(=O)Nc3ccc(Cl)cc3C)ccc21 -14.6%
N=C(N)c1ccc2cc(OC(=O)c3ccc(N=C(N)N)cc3)ccc2c1 -5.33%
O=C(Cn1ncc2c(=O)oc3ccccc3c21)NCc1ccc(Cl)cc1 -13.2%
COc1cccc2sc(N(Cc3cccnc3)C(=O)C3COc4ccccc4O3)nc12 (stereo not given) 0.762%
COc1ccc(N(C)C(=O)CCS(=O)(=O)c2cccc3nsnc23)cc1 -0.968%
CCOc1ccc(CCNC(=O)CN(c2ccc(C)cc2)S(=O)(=O)N(C)C)cc1OCC -3.15%
O=c1c(S(=O)(=O)c2ccccc2)cn(Cc2ccc(F)cc2)c2cc(N3CCCCC3)c(F)cc12 -7.88%
COc1ccc2c(c1)CCc1c(C(=O)Nc3c(C)nn(Cc4ccc(C)cc4)c3C)noc1-2 -2.93%
Cc1ccc(C)c(NC(=O)c2cc(S(=O)(=O)NCCC3=CCCCC3)ccc2F)c1 -26.4%
COc1ccc(CNC(=O)C(C(C)C)N2Cc3ccccc3C2=O)cc1 (stereo not given) -13.2%
CCCN(CCC)C(=O)C1CCN(c2ncnc3c2nc2n3CCCCC2)CC1 -5.55%
Cc1ccc(-n2c(=O)c3c(c4cc(C)ccc4n3C)n(CC(=O)Nc3cc(C)cc(C)c3)c2=O)cc1 -12.8%
C[C@H]1C[C@@H]2[C@H]([C@@H](O)C[C@@]3(C)[C@H]2CC[C@]3(O)C(=O)CO)[C@@]2(C)C=CC(=O)C=C12 -10%
COC(=O)c1nnn(CC(=O)Nc2ccc(Br)c(C)c2)c1N -15.8%
Cc1ccc(-c2onc(C)c2C)cc1S(=O)(=O)NC1CCCCC1 -11.1%
CC1Cn2cc(C(=O)Nc3cccc(C(F)(F)F)c3)c(=O)c3c(Cl)ccc(c32)O1 (stereo not given) -8.17%
CCOC(=O)c1c(-c2ccc(OC)cc2)oc2ccc(OCc3ccc(C(=O)OC)cc3)cc12 -11.1%
CCNc1c(NC(=O)c2cc(OCC)c(OCC)c(OCC)c2)c(=O)oc2ccccc12 -16.4%
CCN1CCN(CCCNC(=O)c2ccc3c(c2)sc2nc(-c4ccc(OC)cc4)cn23)CC1 0.915%
COc1cccc(CNC(=O)CCn2cccn2)c1 -10.3%
CC(NC(=O)C(=O)Nc1c2c(nn1-c1ccc(F)cc1)CSC2)c1ccccc1 (stereo not given) -10.4%
CCC(=O)N1CCc2cc(Br)cc(S(=O)(=O)NCCc3ccccc3)c21 -10.5%
CCOC(=O)c1c(NC(=O)COc2ccc(F)cc2)sc2c1CCC(C)C2 (stereo not given) -43%
O=C(NCCCN1CCN(c2ccccc2F)CC1)c1nnc(Cc2ccc(Cl)cc2Cl)o1 -24.8%
CCCCC/C=C\C/C=C\CCCCCCCC(=O)NC(C)c1ccccc1 (stereo not given) -30.9%
